Measured values: a collection of fitness landscapes (doi:10.1016/j.celrep.2020.107928)
Over roughly 81,000 sequences, “one-hybrid fitness for binding NBS DNA” has its median near -0.1; the highest 2% begin near 0.36. The list shows a part of the results.

B1: Caulobacter ParB omega fusion; a variant is named by its letters at X, in order, B8GW30 (parent)
chain: MESVVVGEPGMSEGRRGLGRGLSALLGEVDAAPAQAPGEQLGGSREAPIEILQRNPDQPRRTFREEDLEDLSNSIREKGVLQPILVRPSPDTAGEYQIVAGERAWRAAQRAGLKTVPIMVRELDDLAVLEIGIIENVQRADLNVLEEALSYKVLMEKFERTQENIAQTIGKSXSHVANXMRLLXLPDEVQSYLVSGELTAXHARAIAAAADPVALAKQIIEGGLSVRETEALARKAPNLSAGKSKGGRPPRVKDTDTQALESDLSSVLGLDVSIDHRGSTGTLTITYATLEQLDDLCNRLTRGI

Variants of: B1
Experiment: one-hybrid fitness for binding NBS DNA (the Noc-binding site; scaled: cognate 1, non-cognate 0); higher = stronger binding
Settings: with NBS DNA site
Summary of the method: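 On M9-minus-histidine containing 0.1 mM IPTG and 5 mM 3-AT, E. coli USO cells with a HIS3 reporter, site 19 bp from the promoter, grew 48 hours at 37°C to select Caulobacter ParB libraries randomised at four specificity codons. Plasmids from before and after were Illumina-sequenced, with three replicate libraries pooled and variants under 10 reads left out. Fitness is the log change in variant-to-wild-type read ratio, rescaled against cognate and non-cognate.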

Q: How did the “one-hybrid fitness for binding NBS DNA” value turn out when RCDY was run?
A: The value was at most 0.2.

Q: With AHTQ as the variant, how does the “one-hybrid fitness for binding NBS DNA” value read?
A: The value was at most 0.2.

Q: Which “one-hybrid fitness for binding NBS DNA” value does the source give for MGKG here?
A: The value was at most 0.2.

Q: LTWR was tested. Which “one-hybrid fitness for binding NBS DNA” value did it give?
A: Its value is at most 0.2.

Q: Which “one-hybrid fitness for binding NBS DNA” value does the source give for RTQD here?
A: Its value is at most 0.2.

Q: Which “one-hybrid fitness for binding NBS DNA” value does the source give for HAHR here?
A: The value was at most 0.2.

Q: For RPKY, which “one-hybrid fitness for binding NBS DNA” value is on record?
A: The value was at most 0.2.

Q: With DVKA as the variant, how does the “one-hybrid fitness for binding NBS DNA” value read?
A: Its value is at most 0.2.

Q: How did the “one-hybrid fitness for binding NBS DNA” value turn out when DHGF was run?
A: The value was at most 0.2.

Q: TSYD was tested. Which “one-hybrid fitness for binding NBS DNA” value did it give?
A: Its value is at most 0.2.

Q: For ALQR, which “one-hybrid fitness for binding NBS DNA” value is on record?
A: The value was at most 0.2.

Q: HSFF was tested. Which “one-hybrid fitness for binding NBS DNA” value did it give?
A: The value was at most 0.2.

Q: Which “one-hybrid fitness for binding NBS DNA” value does the source give for RSVT here?
A: The value was 0.238.

Q: With RVGW as the variant, how does the “one-hybrid fitness for binding NBS DNA” value read?
A: The value was at most 0.2.

Q: KHYN was tested. Which “one-hybrid fitness for binding NBS DNA” value did it give?
A: The value was at most 0.2.

Q: Which “one-hybrid fitness for binding NBS DNA” value does the source give for YSRR here?
A: Its value is at most 0.2.

Q: EALN was tested. Which “one-hybrid fitness for binding NBS DNA” value did it give?
A: Its value is at most 0.2.

Q: For TAPF, which “one-hybrid fitness for binding NBS DNA” value is on record?
A: The value was at most 0.2.

Q: For SPKG, which “one-hybrid fitness for binding NBS DNA” value is on record?
A: Its value is at most 0.2.

Q: How did the “one-hybrid fitness for binding NBS DNA” value turn out when LAQG was run?
A: Its value is at most 0.2.

Q: Which “one-hybrid fitness for binding NBS DNA” value does the source give for GKIR here?
A: Its value is at most 0.2.

Q: Which “one-hybrid fitness for binding NBS DNA” value does the source give for LKKN here?
A: Its value is at most 0.2.

Q: For WDHG, which “one-hybrid fitness for binding NBS DNA” value is on record?
A: The value was at most 0.2.

Q: With IRLV as the variant, how does the “one-hybrid fitness for binding NBS DNA” value read?
A: Its value is at most 0.2.

Q: How did the “one-hybrid fitness for binding NBS DNA” value turn out when NRGC was run?
A: The value was at most 0.2.

Q: For YEVG, which “one-hybrid fitness for binding NBS DNA” value is on record?
A: Its value is at most 0.2.

Q: With GVTP as the variant, how does the “one-hybrid fitness for binding NBS DNA” value read?
A: The value was at most 0.2.

Q: For VKHP, which “one-hybrid fitness for binding NBS DNA” value is on record?
A: The value was at most 0.2.

Q: For LYHL, which “one-hybrid fitness for binding NBS DNA” value is on record?
A: Its value is at most 0.2.

Q: Which “one-hybrid fitness for binding NBS DNA” value does the source give for EPKM here?
A: The value was at most 0.2.

Q: KNSA was tested. Which “one-hybrid fitness for binding NBS DNA” value did it give?
A: Its value is at most 0.2.

Q: How did the “one-hybrid fitness for binding NBS DNA” value turn out when THDM was run?
A: The value was at most 0.2.

Q: Which “one-hybrid fitness for binding NBS DNA” value does the source give for TPGY here?
A: Its value is at most 0.2.

Q: MLHR was tested. Which “one-hybrid fitness for binding NBS DNA” value did it give?
A: Its value is at most 0.2.

Q: For ISAR, which “one-hybrid fitness for binding NBS DNA” value is on record?
A: Its value is 0.207.

Q: EVHL was tested. Which “one-hybrid fitness for binding NBS DNA” value did it give?
A: Its value is at most 0.2.

Q: YIFT was tested. Which “one-hybrid fitness for binding NBS DNA” value did it give?
A: Its value is at most 0.2.

Q: How did the “one-hybrid fitness for binding NBS DNA” value turn out when QYHC was run?
A: The value was at most 0.2.

Q: Which “one-hybrid fitness for binding NBS DNA” value does the source give for DYDI here?
A: The value was at most 0.2.

Q: For KNHS, which “one-hybrid fitness for binding NBS DNA” value is on record?
A: Its value is at most 0.2.

Q: Which “one-hybrid fitness for binding NBS DNA” value does the source give for LVLL here?
A: Its value is at most 0.2.

Q: With TFVG as the variant, how does the “one-hybrid fitness for binding NBS DNA” value read?
A: Its value is at most 0.2.

Q: How did the “one-hybrid fitness for binding NBS DNA” value turn out when TDFR was run?
A: The value was at most 0.2.

Q: PNRD was tested. Which “one-hybrid fitness for binding NBS DNA” value did it give?
A: Its value is at most 0.2.

Q: For NPHS, which “one-hybrid fitness for binding NBS DNA” value is on record?
A: Its value is at most 0.2.

Q: Which “one-hybrid fitness for binding NBS DNA” value does the source give for SAFL here?
A: The value was at most 0.2.

Q: How did the “one-hybrid fitness for binding NBS DNA” value turn out when LRTG was run?
A: The value was at most 0.2.

Q: With SLCG as the variant, how does the “one-hybrid fitness for binding NBS DNA” value read?
A: Its value is at most 0.2.

Q: How did the “one-hybrid fitness for binding NBS DNA” value turn out when TAEI was run?
A: The value was at most 0.2.

Q: For ESDF, which “one-hybrid fitness for binding NBS DNA” value is on record?
A: Its value is at most 0.2.

Q: Which “one-hybrid fitness for binding NBS DNA” value does the source give for LGYS here?
A: Its value is at most 0.2.

Q: Which “one-hybrid fitness for binding NBS DNA” value does the source give for KSRS here?
A: Its value is at most 0.2.

Q: For REIR, which “one-hybrid fitness for binding NBS DNA” value is on record?
A: Its value is at most 0.2.

Q: With QPPE as the variant, how does the “one-hybrid fitness for binding NBS DNA” value read?
A: The value was at most 0.2.

Q: With PHMK as the variant, how does the “one-hybrid fitness for binding NBS DNA” value read?
A: Its value is at most 0.2.

Q: QNSP was tested. Which “one-hybrid fitness for binding NBS DNA” value did it give?
A: Its value is at most 0.2.

Q: How did the “one-hybrid fitness for binding NBS DNA” value turn out when NTDT was run?
A: The value was at most 0.2.

Q: Which “one-hybrid fitness for binding NBS DNA” value does the source give for PKQF here?
A: Its value is at most 0.2.

Q: Which “one-hybrid fitness for binding NBS DNA” value does the source give for KLTR here?
A: Its value is at most 0.2.

Q: With RRHT as the variant, how does the “one-hybrid fitness for binding NBS DNA” value read?
A: The value was 0.755.

Q: How did the “one-hybrid fitness for binding NBS DNA” value turn out when YCKA was run?
A: Its value is at most 0.2.

Q: QDCW was tested. Which “one-hybrid fitness for binding NBS DNA” value did it give?
A: Its value is at most 0.2.

Q: For TDRC, which “one-hybrid fitness for binding NBS DNA” value is on record?
A: Its value is at most 0.2.

Q: How did the “one-hybrid fitness for binding NBS DNA” value turn out when LCRG was run?
A: Its value is at most 0.2.

Q: For YRYR, which “one-hybrid fitness for binding NBS DNA” value is on record?
A: Its value is at most 0.2.

Q: RPGS was tested. Which “one-hybrid fitness for binding NBS DNA” value did it give?
A: The value was at most 0.2.

Q: KTDE was tested. Which “one-hybrid fitness for binding NBS DNA” value did it give?
A: Its value is at most 0.2.

Q: YLTA was tested. Which “one-hybrid fitness for binding NBS DNA” value did it give?
A: The value was at most 0.2.

Q: For PLSE, which “one-hybrid fitness for binding NBS DNA” value is on record?
A: The value was at most 0.2.

Q: For WKAC, which “one-hybrid fitness for binding NBS DNA” value is on record?
A: Its value is at most 0.2.

Q: For DLLT, which “one-hybrid fitness for binding NBS DNA” value is on record?
A: Its value is at most 0.2.

Q: Which “one-hybrid fitness for binding NBS DNA” value does the source give for LSIL here?
A: The value was at most 0.2.

Q: How did the “one-hybrid fitness for binding NBS DNA” value turn out when TIFG was run?
A: The value was at most 0.2.

Q: For QEMI, which “one-hybrid fitness for binding NBS DNA” value is on record?
A: The value was at most 0.2.

Q: Which “one-hybrid fitness for binding NBS DNA” value does the source give for KTIL here?
A: The value was at most 0.2.

Q: With GHIG as the variant, how does the “one-hybrid fitness for binding NBS DNA” value read?
A: Its value is at most 0.2.

Q: For RNGA, which “one-hybrid fitness for binding NBS DNA” value is on record?
A: The value was at most 0.2.

Q: How did the “one-hybrid fitness for binding NBS DNA” value turn out when AYTY was run?
A: The value was at most 0.2.

Q: WGKE was tested. Which “one-hybrid fitness for binding NBS DNA” value did it give?
A: The value was at most 0.2.

Q: For LLGT, which “one-hybrid fitness for binding NBS DNA” value is on record?
A: The value was at most 0.2.

Q: QADG was tested. Which “one-hybrid fitness for binding NBS DNA” value did it give?
A: The value was at most 0.2.

Q: For MFAL, which “one-hybrid fitness for binding NBS DNA” value is on record?
A: Its value is at most 0.2.

Q: Which “one-hybrid fitness for binding NBS DNA” value does the source give for HILG here?
A: Its value is at most 0.2.

Q: With IHLS as the variant, how does the “one-hybrid fitness for binding NBS DNA” value read?
A: Its value is at most 0.2.
